Our source for the inhibition values is PubChem BioAssay AID434955 (Southern Research Specialized Biocontainment Screening …, 2010).

Each structure is given as a SMILES string. The list shows a part of the results. Shown are side measurements of this screen, not its main read-out; they come without a call. Most of these compounds were active or inconclusive in the main read-out, so they are no random draw.

This assay is described as follows: beta-lactam sensitization of Mtb H37Rv, H37Rv (AID 434955).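 Also: growth measured after seven days incubation then overnight dye step; 0% = bacteria only wells and 100% = bacteria with antibiotic.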 The settings on record: M. tuberculosis H37Rv growth with meropenem, percent inhibition; measured here: primary screen without meropenem; at 25 µM.
A word on the inhibition: it is the drop in the measured response relative to a control, in per cent. With `CC1(C)Cc2c(sc(NC(=O)c3ccc(C(=O)c4ccccc4)cc3)c2C#N)C(C)(C)N1`, the inhibition came to 2.99%.

Turning to `C[N+]12CCC(CC1)C(C#N)(N1CCOCC1)C2` (stereo not given), the inhibition was found to be 6.11%.

As for `Cc1ccc(Nc2c([N+](=O)[O-])c(=O)n(C)c3ccccc23)cc1C`, the inhibition is -9.25%.

In the case of `O=C(COC(=O)c1ccc(Cl)cc1[N+](=O)[O-])NNC(=O)c1cccs1`, the inhibition amounted to 41.3%.

As for `CN(CCCN1CCOCC1)C(=O)c1cc(COc2c(F)cccc2F)on1`, the inhibition stood at 0.91%.

As to `COc1ccc(OCC(=O)NNC(=S)NC(=O)C2CCCCC2)cc1`, the inhibition came out at 10.9%.

In the case of `CC1(C)Cc2cccc(OCC(=O)Nc3cccnc3)c2O1`, the inhibition worked out at 5.39%.

For the molecule `Cc1cccc(/C=N/NC(=O)NC2CCCCC2)c1`, the inhibition was -0.41%.

With `O=C(COc1ccc(Cl)cc1)OCC(=O)N1CCCCCC1`, the inhibition was determined as 29.6%.

Regarding `CC1=CC(=O)C(C(C)C)=C/C1=C(\c1cc(C(C)C)c(OP(=O)(O)O)cc1C)c1ccccc1C(=O)O`, the inhibition was -6.11%.

Consider `CCc1c(C(=O)OC)nnc2cc(C)nn12`, for which the inhibition is 4.95%.

`Cc1cc(SCc2ccc(Cl)cc2Cl)nc(=O)[nH]1`: the inhibition was -4.33%.

Turning to `CC1CCc2nn(CC(=O)NCCN3CCOCC3)cc2C1` (stereo not given), the inhibition is -1.13%.

As for `Cc1ccc(NC(=O)CSc2nnc([C@@H]3CCCN3C(=O)OC(C)(C)C)o2)c(C)c1`, the inhibition was determined as 11.1%.

With `Cn1c(=O)c(=O)n(C)c2cc(S(=O)(=O)N3CCCC3C(=O)Nc3ccc(F)cc3)ccc21` (stereo not given), the inhibition is -0.75%.

Regarding `CCCCCCc1cc2cc(-c3nnc(-c4ccccc4O)o3)c(=O)oc2cc1O`, the inhibition is 12.1%.

On to `O=C(NCC1COCCO1)c1cc(COc2ccc(F)cc2F)on1` (stereo not given), for which the inhibition is -0.79%.

Turning to `CC(C)(C)[C@H]1C=C(C(=O)Nc2ccccc2)O[C@@H](OCc2ccc(CO)cc2)C1`, the inhibition is 56.8%.

`COc1ccccc1/C=C1\C(=O)NC(=S)N(c2ccccc2)C1=O`: the inhibition came to 0.83%.

For `CCc1ccc(NC(=O)C2CCN(S(=O)(=O)c3ccc4[nH]c(=O)ccc4c3)CC2)cc1`, the inhibition was -6.41%.

With `O=c1c2cc(Cl)ccc2[nH]c(=S)n1Cc1ccco1`, the inhibition came to 46%.

Turning to `COc1ccccc1NC(=O)c1ccccc1S(=O)(=O)c1ccc([N+](=O)[O-])cc1`, the inhibition was -1.5%.

Consider `COc1ccc(CNC(=O)c2sc3nc4c(c(C(F)(F)F)c3c2N)CCC4)cc1`, for which the inhibition was 0.35%.

As for `Cc1ccccc1NC(=O)NCCCN1CCN(C)CC1`, the inhibition amounted to 7.09%.

As to `COc1cc(C2C(C(N)=O)=C(C)Nc3nc(CCCO)nn32)cc(OC)c1OC` (stereo not given), the inhibition was -1.79%.

Regarding `CC1CCN(S(=O)(=O)c2ccc(NC(=O)Cc3cccs3)cc2)CC1`, the inhibition is -2.07%.

`COc1cccc(C(=O)O/N=C(\N)Cc2ccc(Cl)cc2)c1`: the inhibition was determined as 27.2%.

With `COCCn1c(=NC(=O)CCS(=O)(=O)c2ccccc2)sc2cc(F)ccc21`, the inhibition was -2.84%.

With `Cc1cc(C(=O)CN2C(=O)NC(C)(CC(C)C)C2=O)c(C)n1-c1ccc2c(c1)OCO2` (stereo not given), the inhibition was -12.7%.

Consider `Cc1nc2c3ccccc3n(CC(=O)c3ccc(F)cc3)c(=O)n2n1`, for which the inhibition is -2.1%.

Regarding `O=C(CN1CCC(n2nnc3cc(F)ccc32)CC1)NC1CCCCC1`, the inhibition is -7.38%.

With `COc1ccc2ccccc2c1/C=N/NC(=O)c1cccc(Br)c1`, the inhibition was found to be 20.8%.

With `Cc1cc2c(c(=O)o1)C(C1C=CCCC1)C(C#N)=C(N)O2` (stereo not given), the inhibition stood at 3.39%.

As to `Oc1ccc(/C=N/n2c(COc3ccccc3)n[nH]c2=S)cc1O`, the inhibition was -0.18%.

Consider `CN1C[C@H](CO)C[C@@H]2c3cccc4[nH]cc(c34)C[C@H]21`, for which the inhibition turned out to be 0.62%.

`COc1ccc(CNC(=O)c2nnn(Cc3ccc(OC)cc3)c2N)cc1`: the inhibition was -5.53%.

As to `O=C(NCc1ccc(Cl)cc1)C1CCC(=O)N(C2CCCCCC2)C1` (stereo not given), the inhibition was -5.45%.

As for `CCc1nnc(NC(=O)CSc2nnc(CSc3nc(C)cc(C)n3)n2C)s1`, the inhibition was -1.99%.

In the case of `Cc1noc(C)c1S(=O)(=O)N1CCCC1C(=O)NC(C)(C)C` (stereo not given), the inhibition is -6.41%.

Take `Cn1c(=O)cc(OCC(=O)N2CCN(C3CCCCC3)CC2)c2ccccc21`: the inhibition is -5.91%.

As to `C/C(=N\NC(=S)NCc1ccccc1)c1cccc(Br)c1`, the inhibition amounted to 15.1%.

Turning to `O=C(N/N=C/c1c(Cl)cccc1Cl)c1cccc(F)c1`, the inhibition was 19.8%.

`O=C(COC(=O)/C=C/c1ccc(C(F)(F)F)cc1)NCCC1=CCCCC1`: the inhibition was found to be 22.9%.

On to `CC1CCN(c2ccc(-c3ccc(NC(=O)C(F)(F)F)cc3)nn2)CC1`, for which the inhibition was -1.23%.

Turning to `O=C(COC(=O)c1ccccc1Br)NCCc1ccc(F)cc1`, the inhibition worked out at 6.21%.

Take `c1ccc(-n2nnc3c(N4CCOCC4)ncnc32)cc1`: the inhibition is -5.01%.

Consider `COc1cccc(OCC(=O)Nc2c3c(nn2-c2ccccc2)CS(=O)(=O)C3)c1`, for which the inhibition was 4.27%.

On to `CC(C)(C)c1ccc(-n2ncc3c2CCCC3NC(=O)CCN2CCCCC2=O)cc1` (stereo not given), for which the inhibition is 6.29%.

As for `COc1cccc(/C=N/n2c(COc3ccccc3)n[nH]c2=S)c1`, the inhibition worked out at 0.11%.

With `O=C(COc1ccccc1)Nc1nc2cc3c(cc2s1)OCO3`, the inhibition is -0.48%.

In the case of `CCCCN(CCCNC(=O)Cn1nc(CC)n2c(cc3sc(C)cc32)c1=O)Cc1ccccc1`, the inhibition came to 53%.

For `NC(=O)C1CCN(c2oc(-c3ccccc3)nc2S(=O)(=O)c2ccc(Br)cc2)CC1`, the inhibition came out at 12.7%.

Regarding `CC1CCc2c(sc(NC(=O)CCCn3cnc([N+](=O)[O-])n3)c2C(N)=O)C1` (stereo not given), the inhibition was determined as 45.2%.

For the molecule `COc1cc(/C(C)=N\NC(N)=S)cc(OC)c1OC`, the inhibition was determined as 51.6%.

As for `COc1ccc(C(=O)N/C(=C\c2cccs2)c2nc3ccccc3[nH]2)cc1OC`, the inhibition was -0.97%.

With `CCOC(=O)c1sc(NC(=O)Cn2nnc3sc4c(c3c2=O)CCC(C(C)(C)C)C4)nc1C` (stereo not given), the inhibition turned out to be 46.5%.

For `CCN(CC)c1nc2ccccc2[nH]1`, the inhibition was -2.41%.

Turning to `CCOC(=O)C1CCN(C(=O)CN(c2cc(Cl)ccc2OC)S(=O)(=O)c2ccccc2)CC1`, the inhibition was -10.3%.

Turning to `COc1ccc(C(=O)N(C)C2CCCCC2)cc1OC1CCN(C(C)C)CC1`, the inhibition worked out at 1.56%.

For the molecule `N#C/C(=C/c1cn(-c2ccccc2)nc1-c1cccc(OCc2ccccc2)c1)C(=O)NCCCn1ccnc1`, the inhibition amounted to 99.6%.

With `COc1cc(/C=N/n2c(COc3ccccc3)n[nH]c2=S)cc(Br)c1O`, the inhibition was determined as 5.74%.

For `CC(/C=C/c1ccc(N(C)C)cc1)=N\N=C(/N)SC1CC(=O)N(c2ccc(C(=O)O)cc2)C1=O` (stereo not given), the inhibition is -11.3%.

In the case of `CC(C)(C)c1ccc2c(c1)OC(C(=O)N/N=C\c1ccc[nH]1)CO2` (stereo not given), the inhibition is -1.09%.

On to `CC(=O)O[C@]1(C(C)=O)CCC2C3CCC4=C/C(=N/OCC(=O)O)CC[C@]4(C)C3CC[C@@]21C` (stereo not given in full), for which the inhibition was found to be 5.51%.

Turning to `CCCCCn1c(=O)c(C(=O)NCc2ccncc2)c(O)c2ccccc21`, the inhibition worked out at 55%.

`Cc1ccc(S(=O)(=O)N2CCOCC2)cc1NC(=O)C1=NN(c2ccccc2)C(=O)CC1`: the inhibition amounted to 2.31%.

As to `Cc1ccc(S(=O)(=O)N2CCN(C(=O)CCn3cncn3)CC2)cc1`, the inhibition is -2.46%.

Regarding `COc1ccccc1OCCn1cc(/C=N/n2cnnc2)c2ccccc21`, the inhibition came to 2.07%.

Turning to `CCOc1ccc(CCNC(=O)CN2C(=O)c3cccnc3Oc3ccc(Cl)cc32)cc1`, the inhibition came to 5.78%.

Regarding `CCCCC(=O)Oc1c(S(=O)(=O)c2ccccc2)c(C)nn1C(C)(C)C`, the inhibition was found to be 12.4%.

Consider `CCNc1nc(SCCOc2ccc(C)cc2)nc(N(C)C)n1`, for which the inhibition was -0.99%.

With `[N-]=[N+]=NC(c1ccccc1)c1nc2ccccc2[nH]c1=O` (stereo not given), the inhibition was -0.58%.

For `Cc1ccc(S(=O)(=O)N(CC(=O)N/N=C/c2ccco2)Cc2ccccc2)cc1`, the inhibition is -14.5%.

Turning to `COc1ccc(-n2c(Cc3cccn3C)nnc2SCC(N)=O)cc1`, the inhibition was -6.05%.

Turning to `COc1ccc2oc(C(=O)OCC(=O)NC3CC3)c(C)c2c1`, the inhibition came out at 19.3%.

`CCOC(=O)c1ccc(NC(=S)N(CCCN(CC)CC)Cc2ccco2)cc1`: the inhibition was -5.17%.

With `COc1cccc(CN(C)C(=O)CC2C(=O)NCCN2C2Cc3ccccc3C2)c1` (stereo not given), the inhibition came out at 2.26%.

For `O=C(Nc1ccnn1C1CCN(C/C=C/c2ccccc2)CC1)c1ccccc1Cl`, the inhibition stood at 4.2%.

With `Cc1ccc(S(=O)(=O)N(CC(=O)N(C(C)C)C(C)C)C(=O)N2CCN(C)CC2)cc1`, the inhibition is -8.76%.

`CC(C)C(=O)Nc1ccc2c3c(cccc13)CC2`: the inhibition was 20.1%.

Regarding `O=C(Nc1nnc(-c2ccco2)o1)c1ccc(S(=O)(=O)N2CCOCC2)cc1`, the inhibition was determined as 14.1%.

Regarding `COc1ccc2oc(=O)c(-c3nc(C)cs3)cc2c1`, the inhibition is -1.49%.

In the case of `O=c1c2cc(N3CCOCC3)ccc2[nH]c(=S)n1Cc1ccco1`, the inhibition was -6.51%.

On to `NNC(=S)NC1CC2CC1C1C=CCC21` (stereo not given), for which the inhibition is 17.2%.

For `Cc1ccccc1OCC(=O)NCC(=O)OCC(=O)c1ccc([N+](=O)[O-])cc1`, the inhibition came to 2.15%.

Turning to `COc1ccc(F)cc1S(=O)(=O)N1CC(C)CC(C)C1` (stereo not given), the inhibition was found to be 3.1%.

As for `Cc1ccc(OCC(=O)N/N=C\c2c(C)n(C)c3ccccc23)c([N+](=O)[O-])c1`, the inhibition was -12.1%.

As to `COc1ccc(N(CC(=O)Nc2ccccc2C(=O)N2CCCC2)S(=O)(=O)c2ccccc2)cc1`, the inhibition was found to be 3.17%.

For the molecule `Cc1cc(=O)n2c(-c3ccccc3C)n[nH]c2n1`, the inhibition was found to be 24.3%.

As for `NNc1nc2c(Cl)cccc2s1`, the inhibition was found to be 19.5%.

With `COc1cc(C(=O)Oc2ccccc2/C=N/NC(=O)c2ccc(C)c(Cl)c2)cc(OC)c1OC`, the inhibition is -4.28%.

`CC(C)CCN1CC(O)=C(c2nc3ccccc3[nH]2)C1=N`: the inhibition is 16.1%.

Take `COc1ccccc1OCC(=O)NCC1CCCN(C(=O)c2ccccc2C(C)=O)C1` (stereo not given): the inhibition was -3.51%.

For the molecule `O=C(CN1CCN(c2ccc(F)cc2)CC1)Nc1ccccc1C(=O)NCCc1ccccc1`, the inhibition came to 81.5%.

With `CCCCCn1c(=O)[nH]c2cc(C(=O)NCc3ccco3)ccc2c1=O`, the inhibition stood at 7.77%.

Regarding `CCC(=O)N1C(C(=O)O)CSC1c1ccc(OC)cc1` (stereo not given), the inhibition worked out at 1.16%.

In the case of `Nc1c(S(=O)(=O)c2cccs2)c2nc3ccccc3nc2n1CC1CCCO1` (stereo not given), the inhibition stood at 6.64%.

With `COc1ccc([N+](=O)[O-])cc1NC(=O)C1CCCNC1=O` (stereo not given), the inhibition came to 1.96%.

In the case of `CC(C)n1cc(CN2CCC(Oc3ccc(C(=O)N4CCCC4)cc3)CC2)cn1`, the inhibition came out at 3.95%.

As for `COC(=O)c1sc(-c2ccc(Cl)cc2)cc1NC(=O)COCC(=O)O`, the inhibition came to 36.4%.

For `COc1ccc(C(=O)N(C)Cc2ccc(C)o2)cc1OC1CCN(C(C)=O)CC1`, the inhibition was -1.9%.

For the molecule `COCCCN1C(=O)c2ccccc2C1C(=O)NC1CCCCCC1` (stereo not given), the inhibition was -10.3%.

Take `NCCS`: the inhibition was determined as 7.24%.

On to `COc1cc([C@@H]2c3cc4c(cc3[C@@H](O)[C@@H](CO)[C@@H]2CO)OCO4)cc(OC)c1O[Si](C)(C)C(C)(C)C`, for which the inhibition is 29.2%.

In the case of `CCCC(=O)N(Cc1cc(=O)[nH]c2ccccc12)c1ccccc1C`, the inhibition came to 1.01%.
